Results on 29 compounds are retold here after ChEMBL document CHEMBL5606460, “ASAP - DENV-2 NS2B-NS3 protease fluorescence single point” (2024).

This experiment concerns the target Genome polyprotein (dengue virus type 2) (UniProt P29990).
The mark [1] stands for this setting: Thailand/16681/1984, Concentration 25.0 uM, Number of replicates 1.0.

Hit rate of the full screen: of about 2,000 compounds, about 110 (5.5%) showed an effect of 50% or more. The list shows a part of the results.

In the case of `CCCCCC(=O)N[C@@H](CC(C)C)C(=O)NCc1cccc(CN)c1`, the inhibition is -0.285% (Thailand/16681/1984, Concentration 49.5 uM, Number of replicates 2.0, Standard deviation 0.7403519834842739 %); -0.112% (Thailand/16681/1984, Concentration 99.01 uM, Number of replicates 2.0, Standard deviation 1.2870735055956777 %); -0.257% (Thailand/16681/1984, Concentration 198.0 uM, Number of replicates 2.0, Standard deviation 0.6378417125763649 %).
As to `O=C(NCCc1cncnc1)c1cn([C@H]2CCCNC2)nn1`, the inhibition (Thailand/16681/1984, Concentration 49.5 uM, Number of replicates 2.0, Standard deviation 3.1505652659838077 %) is -3.39%; the inhibition (Thailand/16681/1984, Concentration 99.01 uM, Number of replicates 2.0, Standard deviation 0.03260817375590849 %) is -4.66%; the inhibition (Thailand/16681/1984, Concentration 198.0 uM, Number of replicates 2.0, Standard deviation 5.615654862136011 %) was -0.277%.
Consider `C[C@@H](CO)N1CC[C@H](c2c[nH]c3ccccc23)C1`, for which the inhibition runs as follows: (Thailand/16681/1984, Concentration 49.5 uM, Number of replicates 2.0, Standard deviation 0.47868013456417424 %) -3.1%; (Thailand/16681/1984, Concentration 99.01 uM, Number of replicates 2.0, Standard deviation 1.2496220267431397 %) -3.91%; (Thailand/16681/1984, Concentration 198.0 uM, Number of replicates 2.0, Standard deviation 1.0865654793359512 %) -3.8%.
For the compound `O=Cc1ccc(N2CCC(C(=O)N3CCOCC3)CC2)cc1`, the inhibition under setting [1] worked out at 13.3%.
As for `Cc1cn2ccc(C(=O)Nc3ccncc3C)cc2n1`, the inhibition by setting is: (Thailand/16681/1984, Concentration 49.5 uM, Number of replicates 2.0, Standard deviation 1.1051975895382533 %) -2.26%; (Thailand/16681/1984, Concentration 99.01 uM, Number of replicates 2.0, Standard deviation 0.8986524065509779 %) -1.78%; (Thailand/16681/1984, Concentration 198.0 uM, Number of replicates 2.0, Standard deviation 0.7727324588911023 %) -2.45%.
For the compound `O=Cc1ccc(N2CCC(C(=O)N3CCN(Cc4ccc(C(F)(F)F)cc4)CC3)CC2)cc1`, the inhibition under setting [1] was found to be 12.4%.
Turning to `CCCCCC(=O)N[C@H](C(=O)N1CCC[C@@H](CN)C1)c1ccc(OCc2ccccc2)cc1`, the inhibition (Thailand/16681/1984, Concentration 49.5 uM, Number of replicates 2.0, Standard deviation 0.4718692881385108 %) is -0.055%; the inhibition (Thailand/16681/1984, Concentration 99.01 uM, Number of replicates 2.0, Standard deviation 0.7762171287158467 %) was determined as 0.491%; the inhibition (Thailand/16681/1984, Concentration 198.0 uM, Number of replicates 2.0, Standard deviation 0.05826818665370504 %) was 2.27%.
With `Cc1cc(CO)c2cccc(Cc3ccccc3C(=O)N[C@H](Cc3c[nH]cn3)C(=O)O)c2n1`, the inhibition (Thailand/16681/1984, Concentration 49.95 uM, Number of replicates 2.0, Standard deviation 1.149843071816267 %) was found to be 2.76% and the inhibition (Thailand/16681/1984, Concentration 99.9 uM, Number of replicates 2.0, Standard deviation 1.185775620395321 %) was found to be 11.7%.
On to `CN(C)c1ccc(CNC(=O)C2CCN(c3ccc(C=O)cc3)CC2)cc1`, for which the inhibition under setting [1] is 10.9%.
Regarding `CC(=O)Nc1ccc(C(=O)Nc2cccc3c(CO)cc(C)nc23)cn1`, the inhibition stood at 8.34% (Thailand/16681/1984, Concentration 49.95 uM, Number of replicates 2.0, Standard deviation 2.6037756556386347 %) and 14.3% (Thailand/16681/1984, Concentration 99.9 uM, Number of replicates 2.0, Standard deviation 1.476868730194602 %).
Take `O=Cc1ccc(N2CCC(C(=O)NCc3cccc(Br)c3)CC2)cc1`: the inhibition under setting [1] is 9.39%.
For `Oc1ccc(CN2CC[C@H](c3c[nH]c4ccccc34)C2)cn1`, the inhibition (Thailand/16681/1984, Concentration 49.5 uM, Number of replicates 2.0, Standard deviation 2.2203318043751317 %) is -1.96%; the inhibition (Thailand/16681/1984, Concentration 99.01 uM, Number of replicates 2.0, Standard deviation 2.4081803687742815 %) is -1.66%; the inhibition (Thailand/16681/1984, Concentration 198.0 uM, Number of replicates 2.0, Standard deviation 2.584109641095512 %) was -0.954%.
Regarding `C[C@H]1CN(C(=O)OC(C)(C)C)CCN1C(=O)C1CCN(c2ccc(C=O)cc2)CC1`, the inhibition under setting [1] worked out at 12.4%.
For `CCCCCC(=O)N[C@H](C(=O)Nc1ccc(C(N)=O)cc1)c1ccc(OCc2ccccc2)cc1`, the inhibition is, setting by setting: (Thailand/16681/1984, Concentration 49.5 uM, Number of replicates 2.0, Standard deviation 0.6010644427830669 %) 0.424%; (Thailand/16681/1984, Concentration 99.01 uM, Number of replicates 2.0, Standard deviation 0.8411278167455505 %) 0.131%; (Thailand/16681/1984, Concentration 198.0 uM, Number of replicates 2.0, Standard deviation 0.2400633914962311 %) -0.732%.
`CCCN(C(=O)C1CCN(c2ccc(C=O)cc2)CC1)[C@@H](C)C(=O)Nc1ccccc1C`: the inhibition under setting [1] came out at 4.38%.
Regarding `CCN(CC)S(=O)(=O)c1ccc(NC(=O)C2CCN(c3ccc(C=O)cc3)CC2)cc1`, the inhibition under setting [1] stood at 12.2%.
As to `CN(C(=O)C1CCN(c2ccc(C=O)cc2)CC1)C(c1ccccc1)c1ccccc1`, the inhibition under setting [1] is 12.6%.
`C[C@@H](NC(=O)C1CCN(c2ccc(C=O)cc2)CC1)c1cccc(Br)c1`: the inhibition under setting [1] stood at 11.8%.
As for `CNC(=O)c1cc(Cl)ccc1NC(=O)c1ccc(Oc2ccccc2)cc1`, the inhibition is 3.11% (Thailand/16681/1984, Concentration 49.5 uM, Number of replicates 2.0, Standard deviation 2.8470532500960037 %); 3.72% (Thailand/16681/1984, Concentration 99.01 uM, Number of replicates 2.0, Standard deviation 1.2685656864496342 %); 3.31% (Thailand/16681/1984, Concentration 198.0 uM, Number of replicates 2.0, Standard deviation 8.269913675746206 %).
On to `CC(=O)N[C@@H](CCCCN)C(=O)N[C@@H](Cc1cccc2c(CO)cc(C)nc12)C(=O)O`, for which the inhibition runs as follows: (Thailand/16681/1984, Concentration 49.95 uM, Number of replicates 2.0, Standard deviation 0.8674748022006504 %) -0.687%; (Thailand/16681/1984, Concentration 99.9 uM, Number of replicates 2.0, Standard deviation 0.2317319710699916 %) 3.21%.
For the compound `O=Cc1ccc(N2CCC(C(=O)Nc3ccc([N+](=O)[O-])cc3C(F)(F)F)CC2)cc1`, the inhibition under setting [1] amounted to 11.1%.
Same read-out and setting: the result for `O=Cc1ccc(N2CCC(C(=O)N3CCS[C@H]3c3ccc([N+](=O)[O-])cc3)CC2)cc1` reads 10.8%.
As for `O=Cc1ccc(N2CCC(C(=O)Nc3ccc(OC(F)(F)F)cc3Cl)CC2)cc1`, under setting [1], the inhibition turned out to be 13.6%.
`CCCCCC(=O)N[C@H](C(=O)N1CCC[C@@H](N)C1)c1ccc(OCc2ccccc2)cc1`: the inhibition was -0.123% (Thailand/16681/1984, Concentration 49.5 uM, Number of replicates 2.0, Standard deviation 1.275572557867722 %); 0.674% (Thailand/16681/1984, Concentration 99.01 uM, Number of replicates 2.0, Standard deviation 1.3300520589416613 %); 2.04% (Thailand/16681/1984, Concentration 198.0 uM, Number of replicates 2.0, Standard deviation 1.6287502093065211 %).
As for `Cc1cc(CO)c2cccc(Cc3cccc(C(=O)Nc4nonc4C(N)=O)c3)c2n1`, the inhibition runs as follows: (Thailand/16681/1984, Concentration 49.95 uM, Number of replicates 2.0, Standard deviation 1.9942580477177279 %) 23.4%; (Thailand/16681/1984, Concentration 99.9 uM, Number of replicates 2.0, Standard deviation 1.5142007227316114 %) 73%.
Take `C[C@@H](C(=O)Nc1cccc(CN)c1)c1ccc(OCc2ccccc2)cc1`: the inhibition reads like this: (Thailand/16681/1984, Concentration 49.5 uM, Number of replicates 2.0, Standard deviation 0.3044314072412208 %) -4.36%; (Thailand/16681/1984, Concentration 99.01 uM, Number of replicates 2.0, Standard deviation 0.7321447066003233 %) -2.65%; (Thailand/16681/1984, Concentration 198.0 uM, Number of replicates 2.0, Standard deviation 1.545638942119706 %) 1.83%.
On to `NCCC(=O)Nc1cccc2cccnc12`, for which the inhibition runs as follows: (Thailand/16681/1984, Concentration 49.95 uM, Number of replicates 2.0, Standard deviation 1.674842930068702 %) -9.45%; (Thailand/16681/1984, Concentration 99.9 uM, Number of replicates 2.0, Standard deviation 2.956474982493684 %) -7.49%.
On to `Cn1c(CO)nnc1[C@H]1CCCN(C(=O)C2CCN(c3ccc(C=O)cc3)CC2)C1`, for which, under setting [1], the inhibition was 15.9%.
Regarding `Cc1cccc(CN2CCN(C(=O)C3CCN(c4ccc(C=O)cc4)CC3)CC2)c1`, under setting [1], the inhibition came out at 12.7%.
